Like-named read-outs stand apart in the source and are kept apart here.
Assays:
[1] = target: T1, ErbB4 (Rattus norvegicus, UniProt Q62956); assay: In vitro phosphorylation of Akt in neonatal rat cardiomyocytes; type: cell-based; settings: for EC50: Akt (Serine 473) phosphorylation, neonatal rat cardiomyocytes, 15 minutes treatment, read-out: Cardiomyocyte (CM) (ErbB4) Avg EC50; for CM % Agonism AVG: top value of the Akt phosphorylation data points in cardiomyocytes, wild-type control 100
T1 construct: forming the ErbB2/ErbB4 complex in cardiomyocytes and the ErbB2/ErbB3 complex in Schwann cells; endogenous in cells; host or cells: primary neonatal rat cardiomyocytes (Sprague Dawley pups, 0 to 4 days old)
T1 sequence (Q62956 26-1308): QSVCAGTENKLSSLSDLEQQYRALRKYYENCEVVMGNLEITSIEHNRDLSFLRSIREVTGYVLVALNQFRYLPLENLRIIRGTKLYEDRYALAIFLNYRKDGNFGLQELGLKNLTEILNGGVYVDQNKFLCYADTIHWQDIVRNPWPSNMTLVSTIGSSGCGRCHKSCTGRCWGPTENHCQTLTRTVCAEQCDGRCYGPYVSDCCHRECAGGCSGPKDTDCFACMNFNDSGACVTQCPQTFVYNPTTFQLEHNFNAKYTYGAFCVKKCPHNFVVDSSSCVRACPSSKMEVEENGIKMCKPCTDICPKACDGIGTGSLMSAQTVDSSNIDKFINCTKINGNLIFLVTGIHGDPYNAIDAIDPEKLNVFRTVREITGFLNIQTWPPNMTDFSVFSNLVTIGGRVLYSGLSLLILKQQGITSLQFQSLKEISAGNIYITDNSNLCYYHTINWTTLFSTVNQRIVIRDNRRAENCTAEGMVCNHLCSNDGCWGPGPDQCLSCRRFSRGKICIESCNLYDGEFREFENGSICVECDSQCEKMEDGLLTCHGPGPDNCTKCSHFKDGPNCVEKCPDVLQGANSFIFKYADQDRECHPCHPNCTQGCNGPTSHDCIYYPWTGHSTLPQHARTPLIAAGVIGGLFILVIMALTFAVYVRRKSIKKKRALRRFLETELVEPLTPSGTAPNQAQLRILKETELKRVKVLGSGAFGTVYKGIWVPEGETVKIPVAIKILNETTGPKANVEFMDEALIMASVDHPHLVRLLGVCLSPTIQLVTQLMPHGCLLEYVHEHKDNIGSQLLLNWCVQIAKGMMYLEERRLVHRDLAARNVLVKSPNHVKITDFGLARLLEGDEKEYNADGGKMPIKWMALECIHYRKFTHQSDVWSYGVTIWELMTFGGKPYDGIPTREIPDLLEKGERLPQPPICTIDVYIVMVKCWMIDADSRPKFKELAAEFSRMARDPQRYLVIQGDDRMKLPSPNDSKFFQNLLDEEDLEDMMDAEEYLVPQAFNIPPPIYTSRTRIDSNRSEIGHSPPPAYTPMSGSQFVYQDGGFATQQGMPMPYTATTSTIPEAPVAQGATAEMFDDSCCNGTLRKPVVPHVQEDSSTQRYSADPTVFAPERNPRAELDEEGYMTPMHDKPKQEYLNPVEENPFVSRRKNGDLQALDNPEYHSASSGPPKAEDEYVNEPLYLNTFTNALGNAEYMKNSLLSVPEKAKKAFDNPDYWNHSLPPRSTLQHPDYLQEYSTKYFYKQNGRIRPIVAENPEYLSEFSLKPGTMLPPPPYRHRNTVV
T1 sequence (P06494 23-1257 partner): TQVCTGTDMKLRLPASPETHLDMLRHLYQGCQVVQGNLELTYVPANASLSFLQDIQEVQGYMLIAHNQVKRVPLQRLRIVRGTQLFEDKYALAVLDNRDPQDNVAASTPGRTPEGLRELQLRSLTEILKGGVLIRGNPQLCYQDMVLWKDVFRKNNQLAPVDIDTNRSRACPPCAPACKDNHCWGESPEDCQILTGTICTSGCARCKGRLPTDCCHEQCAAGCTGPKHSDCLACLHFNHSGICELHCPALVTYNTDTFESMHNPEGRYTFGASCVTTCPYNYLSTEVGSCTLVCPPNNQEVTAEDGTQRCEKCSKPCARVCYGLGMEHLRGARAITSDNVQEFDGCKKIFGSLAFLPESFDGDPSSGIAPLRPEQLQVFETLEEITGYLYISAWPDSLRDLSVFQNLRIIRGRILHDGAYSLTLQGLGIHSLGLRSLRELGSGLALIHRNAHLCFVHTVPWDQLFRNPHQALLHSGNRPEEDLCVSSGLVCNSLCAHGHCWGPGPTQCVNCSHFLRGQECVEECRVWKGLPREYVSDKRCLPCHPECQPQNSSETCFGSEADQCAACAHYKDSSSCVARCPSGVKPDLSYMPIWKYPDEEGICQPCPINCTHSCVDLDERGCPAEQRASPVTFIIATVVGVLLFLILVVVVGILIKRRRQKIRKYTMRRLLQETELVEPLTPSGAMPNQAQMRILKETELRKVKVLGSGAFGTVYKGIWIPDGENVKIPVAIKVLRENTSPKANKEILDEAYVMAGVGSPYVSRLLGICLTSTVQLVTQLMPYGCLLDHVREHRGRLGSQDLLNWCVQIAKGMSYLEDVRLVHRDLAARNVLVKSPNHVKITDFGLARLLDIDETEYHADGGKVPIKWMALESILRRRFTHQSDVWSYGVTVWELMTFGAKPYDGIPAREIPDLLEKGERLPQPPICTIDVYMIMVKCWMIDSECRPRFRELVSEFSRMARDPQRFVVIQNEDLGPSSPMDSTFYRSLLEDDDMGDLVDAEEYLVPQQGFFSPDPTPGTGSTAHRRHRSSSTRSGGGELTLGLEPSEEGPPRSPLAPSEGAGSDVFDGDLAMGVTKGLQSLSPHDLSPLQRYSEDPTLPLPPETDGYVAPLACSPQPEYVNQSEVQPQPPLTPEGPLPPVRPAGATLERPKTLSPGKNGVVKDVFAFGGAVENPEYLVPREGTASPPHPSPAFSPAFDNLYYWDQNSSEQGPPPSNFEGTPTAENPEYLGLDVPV
Procedure, shortened: (§1)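 Akt Ser473 phosphorylation, normalised to total Akt, was measured after 15-min neuregulin variant treatment of serum-starved (16 h) cells: rat Schwann cells for ErbB3, neonatal rat cardiomyocytes for ErbB4. EC50 derived by variable-slope log(agonist) fit; CM % agonism is the curve top.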

[2] = tested on: Surgically induced myocardial infarction (MI) Sprague Dawley (SD) rats; assay: ErbB4 selective agonist efficacy in rat myocardial infarction (MI) model (Example 2, SC dosing); type: in vivo
Procedure: An ErbB4 selective agonist (huNRG1(S177-F229)(NRGE1C)((G4E)2)::G4:: huFcSEFL2 (Pb)) was tested in a rat MI model to determine whether a benefit could be seen in improving cardiac function.
14 days before MI surgery, rats were subjected to echocardiography to assess the cardiac function by ejection fraction (EF %). Noninvasive parasternal long axis B mode cine loops were acquired using Vevo 2100 system (VisualSonics Inc., Toronto, Canada). EF was calculated using the manufacturer's recommended method. Rats were randomized into three groups based on the baseline ejection fraction numbers: 1. Vehicle; 2. ErbB4 agonist 10 μg/kg; 3. ErbB4 agonist 20 μg/kg. After randomization on week 2, 16 rats were dosed with a vehicle or 10 μg/kg or 20 μg/kg, ErbB4 agonist, subcutaneously (SC).
Anesthesia exposure is known to influence cardiac function so isoflurane was maintained at 2.5% during echocardiography to minimize its influence on cardiac function. Isoflurane exposure duration per animal was <10 min during echocardiography. Animals were closely monitored during the study.

[3] = target: T2, ErbB3 (Rattus norvegicus, UniProt Q62799); assay: In vitro phosphorylation of Akt in rat Schwann cells; type: cell-based; settings: Akt (Serine 473) phosphorylation, 15 minutes treatment
T2 construct: forming the ErbB2/ErbB4 complex in cardiomyocytes and the ErbB2/ErbB3 complex in Schwann cells; endogenous in cells; host or cells: rat Schwann cells
T2 sequence (Q62799 20-1339): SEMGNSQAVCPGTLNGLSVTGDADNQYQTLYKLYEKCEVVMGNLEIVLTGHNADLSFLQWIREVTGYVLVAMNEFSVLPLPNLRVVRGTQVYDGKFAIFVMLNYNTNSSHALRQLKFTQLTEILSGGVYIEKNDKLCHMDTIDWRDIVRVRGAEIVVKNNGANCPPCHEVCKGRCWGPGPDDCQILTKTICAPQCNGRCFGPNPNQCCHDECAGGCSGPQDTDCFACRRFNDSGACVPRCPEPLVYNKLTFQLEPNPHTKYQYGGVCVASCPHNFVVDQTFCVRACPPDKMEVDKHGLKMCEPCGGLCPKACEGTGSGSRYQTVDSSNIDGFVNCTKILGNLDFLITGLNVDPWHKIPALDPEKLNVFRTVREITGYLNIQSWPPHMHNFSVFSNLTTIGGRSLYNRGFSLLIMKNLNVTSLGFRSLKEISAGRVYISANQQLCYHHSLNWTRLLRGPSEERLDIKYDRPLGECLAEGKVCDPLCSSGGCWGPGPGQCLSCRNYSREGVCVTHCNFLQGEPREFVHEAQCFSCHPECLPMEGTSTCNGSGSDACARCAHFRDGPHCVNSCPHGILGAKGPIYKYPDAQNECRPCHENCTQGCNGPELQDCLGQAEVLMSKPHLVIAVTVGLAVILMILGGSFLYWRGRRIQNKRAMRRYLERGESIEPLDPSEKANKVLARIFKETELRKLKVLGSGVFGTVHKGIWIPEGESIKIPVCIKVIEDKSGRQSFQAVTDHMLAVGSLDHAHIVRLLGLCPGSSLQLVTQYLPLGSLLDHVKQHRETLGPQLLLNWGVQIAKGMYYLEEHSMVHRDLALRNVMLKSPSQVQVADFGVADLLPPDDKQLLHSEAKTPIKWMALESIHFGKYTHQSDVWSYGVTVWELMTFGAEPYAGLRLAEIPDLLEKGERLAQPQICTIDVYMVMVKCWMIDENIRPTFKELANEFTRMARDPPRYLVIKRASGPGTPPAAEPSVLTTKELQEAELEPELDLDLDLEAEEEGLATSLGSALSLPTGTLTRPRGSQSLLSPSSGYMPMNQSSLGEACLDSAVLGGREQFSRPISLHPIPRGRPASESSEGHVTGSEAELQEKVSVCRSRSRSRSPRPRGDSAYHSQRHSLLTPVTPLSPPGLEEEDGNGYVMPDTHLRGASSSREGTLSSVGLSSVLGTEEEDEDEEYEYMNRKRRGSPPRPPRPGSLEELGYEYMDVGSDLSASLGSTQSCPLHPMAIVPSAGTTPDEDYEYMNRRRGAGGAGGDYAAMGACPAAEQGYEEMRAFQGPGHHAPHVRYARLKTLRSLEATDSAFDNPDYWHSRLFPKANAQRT
T2 sequence (P06494 23-1257 partner): as the sequence (P06494 23-1257 partner) above
Procedure, shortened: as §1

[4] = GGT -> GGC silent mutation before terminal lys

B1: huNRG1(S177-F229)(NRGE1C)((G4E)2)::G4::huFcSEFL2 (Pb): Fc fusion of NRG1 variant SEQ ID NO:117; ErbB4 selective agonist tested in rat MI model (Example 2) (protein)
chain: SHLVKCGEKHKSFCVNGGECFMIEGPSNPSRYLCKCPNEFTGDRCQEDFMASFGGGGEGGGGEGGGG[letters of human IgG1 Fc with R292C N297G V302C (EU numbers) not shown]
modifications: huNRG1(S177-F229)(NRGE1C) ((G4E)2)::G4::huFcSEFL2 (Pb)
EC50 [1, 4]: 0.073 nM | EC50 [1]: 0.36 nM | Selectivity SC/CM ([1]; ratio of EC50s Schwann cells/cardiomyocytes): >10000 | CM % Agonism AVG [1]: 81.9% | CM % Agonism AVG [1, 4]: 88.7% | Terminal serum exposure ([2]; 10 or 20 μg/kg SC, treated groups compared to vehicle group (FIG. 1A)): significantly higher | Plasma exposure levels, 20 μg/kg vs 10 μg/kg ([2]; SC): markedly higher in the 20 μg/kg group than in the 10 μg/kg group | Adverse events (mortality/morbidity) ([2]; after treatment with 10 or 20 μg/kg SC): No adverse events (mortality/morbidity) | Cardiac function (ejection fraction) ([2]; one week after SC dosing of 10 or 20 μg/kg, compared to vehicle group (FIG. 1B)): improved cardiac function | Schwann cells (SC) (ErbB3) Avg EC50 (M) [3]: inactive | EC50 ([3]; read-out: Schwann cells (SC) (ErbB3) Avg EC50): > 10000 nM
